{"source": "PubChem BioAssay AID463173", "about": "(ICCB-Longwood Screening Facility, Harvard Medical School, 2010)", "note": "In all, about 52,000 compounds went through this assay and about 4,300 (8.3%) were called active. Cut-off read from the data, not from the text of the source: active = survival mostly below about 52% (no sharp cut-off); inactive = mostly above about 56%. Some of the results follow."}
{"tested_on": "DeltatarO mutant", "experiment": "growth inhibition of S. aureus wild type versus tarO mutant, primary screen, teichoic acid synthesis inhibitors, RN4220, OD600 (AID 463173)", "conditions": "OD600, 18 h, stronger effect = lower value, screened at 18.75 µg/mL (by protocol)"}
{"smiles": "CCN(CC)c1ccc2cc(-c3nc(-c4cccs4)no3)c(=O)oc2c1", "survival": "inactive: 83%"}
{"smiles": "CC(=O)c1ccc(N2CCN(C(=O)CCC(=O)Nc3ccc4nc(N5CCCCC5)cc(C)c4c3)CC2)cc1", "survival": "inactive: 73%"}
{"smiles": "COC(=O)CNC(=O)C1CCN(S(=O)(=O)c2cccc3nsnc23)CC1", "survival": "inactive: 92%"}
{"smiles": "Cc1ccc(C(=O)c2c(N)c(C(=O)Nc3ccccc3Cl)c3ccccn23)cc1", "survival": "inactive: 69%"}
{"smiles": "CCOc1ccc(OCC(=O)NCCS(=O)(=O)N2CCN(c3ccccc3F)CC2)cc1", "survival": "inactive: 71%"}
{"smiles": "Cc1ccc(CCNC(=O)c2ccc3c(c2)nc2n3CCCCC2)cc1", "survival": "inactive: 102%"}
{"smiles": "COc1ccc(S(=O)(=O)Nc2ccc(-c3ccc(N4CCCC4)nn3)cc2)cc1F", "survival": "inactive: 88%"}
{"smiles": "Cc1sc2ncn(CC(=O)Nc3cccc(C(F)(F)F)c3)c(=O)c2c1S(=O)(=O)N1CCN(C)CC1", "survival": "inactive: 60%"}
{"smiles": "COc1ccccc1CNC(=O)CN(C)c1nn2c(=O)cc(C)nc2s1", "survival": "inactive: 101%"}
{"smiles": "CCc1ccc(NC(=O)C2CCCN2S(=O)(=O)c2ccc3c(c2)n(C)c(=O)c(=O)n3C)cc1", "note": "(stereo unspecified)", "survival": "inactive: 93%"}
{"smiles": "Cn1c(CS(=O)(=O)c2ccc(Cl)cc2)c(C#N)c2ccccc21", "survival": "inactive: 80%"}
{"smiles": "COc1ccc2c(c1)cc1c(=O)n(CC(=O)NC(C)C)nc(C)n12", "survival": "inactive: 78%"}
{"smiles": "CC(=O)c1ccc(NC(=O)CSc2nnc3ccc(-c4ccc(Br)cc4)nn23)cc1", "survival": "inactive: 66%"}
{"smiles": "COc1ccccc1NC(=O)CCC(=O)N1CC(C)Oc2ccc(C)cc21", "note": "(stereo unspecified)", "survival": "inactive: 58%"}
{"smiles": "COc1cc(CN2CCN(C(=O)c3cccc4ccccc34)CC2)cc(OC)c1OC", "survival": "inactive: 72%"}
{"smiles": "CC1CCN(S(=O)(=O)c2ccc3c(c2)c(=O)c(C(=O)NCCc2ccccc2)cn3C)CC1", "survival": "inactive: 101%"}
{"smiles": "COc1ccc(S(=O)(=O)NCCc2csc3nc(-c4cccc(C)c4)nn23)cc1F", "survival": "inactive: 89%"}
{"smiles": "CCCCN1C(=O)c2[nH]nc(-c3ccccc3O)c2C1c1ccc(OCc2ccccc2)cc1", "note": "(stereo unspecified)", "survival": "active: 43%"}
{"smiles": "COc1ccccc1NC(=O)CSc1nnc(NC(=O)Nc2ccc(C)cc2)s1", "survival": "inactive: 58%"}
{"smiles": "CN(C)CCNC(=O)c1ccc2c(c1)NC(=O)C(CS(=O)(=O)Cc1cccc(Br)c1)N2", "note": "(stereo unspecified)", "survival": "inactive: 108%"}
{"smiles": "COc1ccccc1CNC(=O)c1c(O)nc2c(C)cccn2c1=O", "survival": "inactive: 69%"}
{"smiles": "CN(C(=O)CSc1nc(C2CCCC2)nc2c1c(=O)n(C)c(=O)n2C)c1ccccc1", "survival": "inactive: 94%"}
{"smiles": "Cc1cccc(C)c1OC(=O)CSc1nnc(CNC(=O)c2ccccc2)o1", "survival": "inactive: 92%"}
{"smiles": "CC1CCN(C(=O)CSc2nnc(-c3ccccc3)o2)CC1", "survival": "inactive: 75%"}
{"smiles": "COc1ccc(NC(=O)Cn2c(=O)c3cc(Cl)ccc3n3nncc23)cc1", "survival": "inactive: 126%"}
{"smiles": "CC(C)CCNS(=O)(=O)c1ccc(N2CCCCS2(=O)=O)cc1", "survival": "inactive: 82%"}
{"smiles": "CCOc1ccc(C(=O)c2cn(CC(=O)Nc3ccc4c(c3)OCCO4)c3ccc(F)cc3c2=O)cc1", "survival": "inactive: 91%"}
{"smiles": "COc1ccccc1-c1noc(-c2ccc(NCc3ccco3)c([N+](=O)[O-])c2)n1", "survival": "inactive: 97%"}
{"smiles": "S=C1NNC2(CC3CC2C2CCCC32)NN1", "note": "(stereo unspecified)", "survival": "inactive: 58%"}
{"smiles": "Cc1ccc(S(=O)(=O)N2CCCC(NC(=O)NCc3ccco3)C2)cc1", "note": "(stereo unspecified)", "survival": "inactive: 100%"}
{"smiles": "O=C(Nc1cccc(C(F)(F)F)c1)c1cc(S(=O)(=O)N2CCCC2)c[nH]1", "survival": "inactive: 88%"}
{"smiles": "CC(=O)n1c(=O)oc2cc(Cl)ccc21", "survival": "inactive: 108%"}
{"smiles": "COc1ccc(NC(=O)Cn2nnc(C(=O)NCc3ccc4c(c3)OCO4)c2N)cc1", "survival": "inactive: 76%"}
{"smiles": "Cc1cccc(N2CCN(C(=O)c3ccc4c(Cl)c5c(nc4c3)CCCC5)CC2C)c1", "note": "(stereo unspecified)", "survival": "inactive: 76%"}
{"smiles": "COc1ccc(-n2nnc(-c3nsc(NC(=O)c4ccc(C)c(C)c4)n3)c2C)cc1Cl", "survival": "inactive: 126%"}
{"smiles": "O=C(CSc1oc(-c2ccccc2)nc1S(=O)(=O)c1ccc(Cl)cc1)NC1CCCCC1", "survival": "inactive: 60%"}
{"smiles": "CCCc1nnc(NC(=O)Cc2coc3ccc(C(C)C)cc23)s1", "survival": "inactive: 69%"}
{"smiles": "COCCCNC(=O)CSc1nc2cc3c(cc2c(=O)n1CCCCCC(=O)NCc1ccc(OC)cc1)OCO3", "survival": "active: 6%"}
{"smiles": "CC(C)COC(=O)Cn1nnc2sc(-c3ccccc3)cc2c1=O", "survival": "inactive: 61%"}
{"smiles": "Cc1cc(C)c(NS(=O)(=O)c2cc(-c3onc(C)c3C)ccc2C)c(C)c1", "survival": "inactive: 83%"}
{"smiles": "O=C(CN1CCCN(S(=O)(=O)c2ccc(Br)cc2)CC1)Nc1cccc(C(F)(F)F)c1", "survival": "inactive: 69%"}
{"smiles": "CC1CCN(C(=O)c2ccc3c(c2)N(Cc2ccccc2)C(=O)c2ccccc2S3(=O)=O)CC1", "survival": "inactive: 59%"}
{"smiles": "Cc1ccc(NC(=O)c2cnc(SCC(=O)N3CCOCC3)n(C)c2=O)cc1C", "survival": "inactive: 101%"}
{"smiles": "CN(C)c1ccc(N/C=C(\\C#N)c2nc3ccccc3[nH]2)cc1", "survival": "inactive: 76%"}
{"smiles": "CCOc1ccc(NC(=O)CCc2nc3cccnc3n2-c2ccccc2)cc1", "survival": "inactive: 80%"}
{"smiles": "COC(=O)c1cc2c(ccn2-c2ccc(F)cc2)n1CC(=O)c1ccc(OC)cc1", "survival": "inactive: 64%"}
{"smiles": "CCN(Cc1ccccc1)Cc1c(O)ccc2c(=O)c(-c3ccc(Cl)cc3)coc12", "survival": "inactive: 64%"}
{"smiles": "O=C(NCc1ccccc1Cl)c1cnc(N2CCOCC2)c2ccccc12", "survival": "inactive: 101%"}
{"smiles": "Cc1ccc(-c2cc(-c3coc4ccc(Cl)cc4c3=O)c3c(n2)-c2ccccc2OC3)cc1", "survival": "inactive: 77%"}
{"smiles": "N#CSc1ccc(N2CCCCC2)cc1", "survival": "inactive: 69%"}
{"smiles": "Cc1ccc(C)c(N2CCN(C(=O)CCNS(=O)(=O)c3ccc4c(c3)CCN4C(=O)C3CC3)CC2)c1", "survival": "inactive: 99%"}
{"smiles": "O=C(C1CCC(Cn2c(=O)c3sccc3n(Cc3ccccc3)c2=O)CC1)N1CCCCC1", "note": "(stereo unspecified)", "survival": "inactive: 78%"}
{"smiles": "CC(C)CN(CCCNC(=O)c1cc(=O)[nH]c2ccc(S(=O)(=O)N3CCCC3)cc12)CC(C)C", "survival": "inactive: 107%"}
{"smiles": "Cc1ccc(CNC(=O)CCCCCn2c(=O)c3sccc3n(CC(=O)Nc3ccc(C)c(F)c3)c2=O)cc1", "survival": "inactive: 138%"}
{"smiles": "CCc1cnc2c(c1SCc1ccccc1C)c(=O)n(C)c(=O)n2C", "survival": "inactive: 65%"}
{"smiles": "O=c1[nH]c2ccccc2nc1/C=C(\\O)c1ccccc1", "survival": "inactive: 83%"}
